This passage reports binding signal results from paper PMC6212790.

The other results are listed elsewhere or left out. At the low end of the ranking the order means little.

The assay deals with T1, GST-Rok (full length) (UniProt O34857).
T1 sequence: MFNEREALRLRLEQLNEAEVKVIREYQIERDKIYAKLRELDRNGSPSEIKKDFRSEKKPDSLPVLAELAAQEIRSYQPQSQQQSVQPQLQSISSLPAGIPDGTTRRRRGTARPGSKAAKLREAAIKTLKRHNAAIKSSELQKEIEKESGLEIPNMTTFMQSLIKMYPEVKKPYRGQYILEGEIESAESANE
The assay is described as follows: protein binding microarray.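 Note: rank score from −0.5 (least bound) to 0.5 (best bound).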 The following applies: Rok is a gene silencer of Bacillus subtilis; high values mean tight binding; most listed sequences are background and not binding sites; double strand, one strand shown.
Sequence TTGCGAAA had a binding signal of 0.0532 E-score. As for ACCTAATA, the figure is 0.176 E-score; as for ACCCTCGC, -0.0467 E-score. As to GGATAACA, the binding signal came out at 0.199 E-score. Under CGTCTTGA stands -0.147 E-score; under ATTGGCTC, -0.0706 E-score.

TCTGCTCA yielded a binding signal of 0.0881 E-score. On to ACGCTAGG, for which the binding signal was -0.0353 E-score. As for CAGTACAG, the figure is 0.132 E-score; as for CATCATAG, 0.129 E-score; as for CTTCAAAA, -0.0626 E-score.

Sequence GCGAGGCA showed a binding signal of -0.26 E-score. As for ATACAAAA, the binding signal was found to be 0.278 E-score. ACTCTACG came in with a binding signal of 0.117 E-score. On to GGAAACAA, for which the binding signal came out at 0.207 E-score.

The sequence AATCCCAA showed a binding signal of 0.0249 E-score. Under AACCGAGA stands -0.0875 E-score; under AAGTGGAT, 0.0996 E-score. TAAAAATA had a binding signal of 0.369 E-score. As for CGTCTCAC, the figure is -0.207 E-score; as for GATTTTAA, 0.254 E-score; as for AAATCACA, 0.117 E-score.

On to CACCACGG, for which the binding signal is -0.0449 E-score. Under ATTTTTCG stands 0.226 E-score; under AATATCTC, 0.203 E-score; under ACCATTTA, 0.238 E-score.

AGGCACTG yielded a binding signal of -0.0252 E-score.

Sequence CTTTTGCA displayed a binding signal of 0.00115 E-score. As for GAGTTAGA, the figure is 0.214 E-score; as for CGTAGAAA, 0.359 E-score; as for AATAGTTG, 0.313 E-score. CGAAATCA showed a binding signal of 0.144 E-score.

For CCCAACAA, the binding signal is -0.0669 E-score.

For the sequence AACTGCCG, the binding signal is -0.073 E-score. Under CCGGGTTA stands -0.0958 E-score. CGGGCACC showed a binding signal of -0.352 E-score. As for ACATTTAA, the figure is 0.0958 E-score. For the sequence CAGAATAA, the binding signal was 0.0816 E-score. As for AGCTGACA, the figure is -0.0391 E-score; as for CACGATGG, -0.0893 E-score; as for GTTCTGAA, 0.066 E-score. Under AGTGCCAC stands -0.174 E-score. As for CCCGCAAC, the figure is -0.00234 E-score; as for CGTCGGAG, -0.255 E-score. Sequence ATAGGCTA came in with a binding signal of 0.139 E-score. Under TCACAGGA stands -0.0027 E-score; under CCGCTGCA, -0.112 E-score. As for GTCTGAAC, the figure is -0.103 E-score; as for CACGTATG, 0.0605 E-score.

Take CTTATTTA: the binding signal was found to be 0.148 E-score. Under AGATGCCA stands -0.0828 E-score; under CTCGCTGC, -0.0165 E-score.

Sequence AGTTAATA had a binding signal of 0.281 E-score. On to TAACCGAA, for which the binding signal worked out at 0.12 E-score.

TAAGCAAA had a binding signal of 0.208 E-score. As to AGGACTTA, the binding signal was -0.0924 E-score.

As for AATCGACT, the binding signal stood at 0.0535 E-score. Under GGATCGAA stands -0.0686 E-score. For the sequence ACGTCATG, the binding signal is -0.0357 E-score.

Take ACAGAATC: the binding signal is 0.113 E-score. AAGAACTG: the binding signal was -0.0578 E-score.

The sequence ACACCTGT had a binding signal of -0.0296 E-score. In turn, GCGTGGTA showed a binding signal of 0.164 E-score. With AAAGAGGA, the binding signal was -0.107 E-score.

GCTCGTAC displayed a binding signal of -0.0724 E-score. As for CTAGCGGC, the figure is 0.00561 E-score; as for AATATGTA, 0.416 E-score.

As for CATCACGA, the binding signal was -0.00103 E-score. As for AAATTCGA, the figure is 0.144 E-score; as for CCATAGAG, -0.179 E-score; as for TCAGCAGA, -0.0651 E-score. As for AATCCTCA, the figure is 0.0559 E-score; as for CAACCCCA, -0.306 E-score.

AGTGGTTG registered a binding signal of 0.00567 E-score. As for CCTTTCCC, the figure is -0.329 E-score. As for GCTCTAAA, the figure is -0.00769 E-score. As for ATTTGAGA, the figure is 0.101 E-score; as for AAATATGC, 0.223 E-score. Regarding GCCTAAGA, the binding signal is -0.0322 E-score.

As for GAGTACCC, the binding signal was -0.131 E-score.

AATCTACC came in with a binding signal of 0.437 E-score. Under AAATCATG stands -0.143 E-score. As to CAGTAACC, the binding signal amounted to 0.0661 E-score. As for ACTTACCT, the figure is 0.0398 E-score; as for GTGTTCAA, 0.0117 E-score. Under ATAGATAT stands 0.374 E-score; under ACCCGCGC, -0.214 E-score; under ACAAAGCC, -0.0156 E-score. Under CAATTGGA stands 0.112 E-score; under GGAACGAC, -0.0783 E-score; under ATGCTCTA, -0.0712 E-score. In turn, GCGGCCGC came in with a binding signal of -0.279 E-score.

Consider GTTGGCTA, for which the binding signal was -0.0143 E-score. As for CGAGGCCC, the figure is -0.259 E-score; as for CGTTAAAG, -0.00944 E-score. With GGCTAATA, the binding signal was -0.076 E-score.

Consider CGTCGTGC, for which the binding signal was -0.32 E-score. As for CACTATGG, the figure is -0.0716 E-score; as for ACCTAGAG, -0.147 E-score; as for CCAGACTA, 0.0332 E-score. As for CCAGCTTA, the figure is -0.207 E-score; as for AATGTCTA, 0.15 E-score.

On to ATGAGGAG, for which the binding signal is -0.258 E-score. Under ACAACGAC stands 0.0795 E-score. As to GACTAACC, the binding signal came to 0.0811 E-score. Under CGACATGC stands 0.00681 E-score. With CTACCCGC, the binding signal was -0.112 E-score. AGAAGGCC gave a binding signal of -0.414 E-score. With CGACGGCC, the binding signal is -0.217 E-score. As for ACGAGACG, the figure is -0.0773 E-score; as for AGCCTCTG, -0.166 E-score.

Sequence ACGCATAG registered a binding signal of -0.081 E-score. The sequence AGATGGGC returned a binding signal of -0.234 E-score. Take AGCAGCTA: the binding signal was found to be 0.0936 E-score. Under CGGTGTTA stands 0.0408 E-score; under ACTGGGTC, -0.107 E-score. As for AACCCGGA, the figure is -0.114 E-score; as for ACGACTAA, 0.0127 E-score; as for GCGCCGTA, -0.132 E-score.

CAGCTACC: the binding signal is 0.0183 E-score.

In turn, AAATTACT yielded a binding signal of 0.386 E-score. Under CGTATCCA stands -0.032 E-score; under CAGCACCG, -0.114 E-score; under TACGGCGA, -0.222 E-score. Consider GCGTCGCC, for which the binding signal was -0.217 E-score. As for ACAACGCC, the figure is -0.00977 E-score; as for AAAGGCGG, -0.244 E-score; as for AGAGCATC, -0.142 E-score.

GCAGTATA: the binding signal was determined as 0.275 E-score. As for CAGACAGG, the figure is -0.272 E-score; as for CATGGAGC, -0.301 E-score; as for AGCCATGG, -0.213 E-score. CTCACCCC came in with a binding signal of -0.292 E-score.

AGCTGTCC returned a binding signal of -0.311 E-score. Under GCCTCCAC stands -0.187 E-score; under GAGAAACC, 0.0725 E-score; under ACGGAGAA, 0.085 E-score. ATTTCTTC had a binding signal of 0.219 E-score. As for CCCCTCAC, the figure is -0.369 E-score; as for AAACATGT, 0.0907 E-score. Under ACGAGTCT stands -0.0337 E-score; under CAGAACGA, -0.151 E-score. As for GTGCCGCA, the figure is -0.192 E-score; as for AGCAAGCA, -0.0589 E-score.

With ATTACTGC, the binding signal is 0.138 E-score.

The sequence AAATGCTA gave a binding signal of 0.187 E-score. AAAAGCGA had a binding signal of 0.0193 E-score. TCGAAAGA displayed a binding signal of -0.0247 E-score. Under ACCCAGAC stands -0.111 E-score. Under CTGAGCCA stands -0.121 E-score. Under CCTCTGGA stands -0.156 E-score; under CATCGGGC, -0.215 E-score; under CGGAGTTC, -0.108 E-score. Turning to AGAGTCTA, the binding signal was -0.0659 E-score. With ACCTTGAC, the binding signal is 0.0189 E-score. On to ACCGGGTG, for which the binding signal is -0.11 E-score. As for GAACCTAC, the figure is 0.15 E-score. Under AAGCTTCC stands -0.103 E-score. As for AGCAGGCA, the figure is -0.201 E-score; as for AGGACTGG, -0.0487 E-score; as for AGCTACAC, 0.191 E-score. Sequence ACTCAACA came in with a binding signal of 0.0726 E-score. As for ACCAATAT, the figure is 0.298 E-score; as for CCTACTAC, 0.258 E-score. Under ATTATGCA stands 0.229 E-score.

As for AGAACGCG, the binding signal is -0.0621 E-score.

Take CAGCTGAC: the binding signal is -0.178 E-score. Under TATTCGGA stands 0.00781 E-score. Under GCCTGGTA stands -0.302 E-score; under GCAAGATA, -0.127 E-score; under TCTGAAAA, 0.0472 E-score. As for GCCGGCGC, the figure is -0.351 E-score; as for CACAGTGA, 0.137 E-score. For AGATCTAC, the binding signal is 0.332 E-score. As for ACTTGGTG, the figure is -0.0883 E-score. As for CTCGGTCA, the figure is -0.0565 E-score; as for GGGCCCCC, -0.485 E-score. As for TACCCGCA, the figure is -0.155 E-score.

AGGGCGCA registered a binding signal of -0.239 E-score.

Turning to ACCGTTAC, the binding signal was 0.111 E-score.

AAACGTCC came in with a binding signal of -0.288 E-score. As for ATGGCGGA, the figure is -0.276 E-score; as for AATGGTGT, 0.101 E-score; as for CACGGTAG, 0.264 E-score. The sequence ATCCCACA had a binding signal of -0.042 E-score. As for ATGAGTCA, the figure is 0.143 E-score; as for ACGGTCCT, -0.0816 E-score.

Sequence AGCACAAT showed a binding signal of 0.0485 E-score. Under ACAGAGGG stands -0.158 E-score; under GAACCCCC, -0.433 E-score; under ACTCGGCG, -0.067 E-score. Under GTCGCCCA stands -0.31 E-score; under CAGTGTCC, -0.00743 E-score; under ATAGGTTG, 0.154 E-score.

The sequence TCGGTAAA displayed a binding signal of 0.136 E-score.

In the case of CAACCTAC, the binding signal turned out to be 0.218 E-score.

Sequence CCACGGTA yielded a binding signal of 0.0242 E-score. As for GCTGCGGA, the figure is -0.0422 E-score; as for AGGACGCG, -0.171 E-score.

Sequence TACTTACA gave a binding signal of 0.331 E-score. Under AGTTTGAT stands 0.11 E-score; under CAGACCCG, -0.323 E-score. In the case of TCGGACGA, the binding signal was -0.114 E-score. As for GATGGCCA, the figure is -0.13 E-score. Under AGGGACTG stands -0.164 E-score.

As to AGCGACCG, the binding signal is -0.317 E-score.

With CTGGAGAA, the binding signal was found to be 0.21 E-score. As for CAGCGTCG, the figure is -0.259 E-score; as for TAGTGGGA, 0.0116 E-score.

In the case of CACGGGCC, the binding signal was -0.315 E-score. Consider AGTCTTCA, for which the binding signal turned out to be 0.0416 E-score. CCGGGTAC had a binding signal of -0.166 E-score. Under AGGTAGTA stands 0.364 E-score; under CGGGAAAA, -0.0788 E-score; under CATATCAA, 0.112 E-score. Under GTACAGAC stands -0.024 E-score; under CTGACGCA, -0.0773 E-score; under GTGAGACA, -0.187 E-score. As for GGCTTAGA, the figure is -0.287 E-score.
